The other results are listed elsewhere or left out. The energies were worked out here from pooled read counts, against the library average; single values are noisy.
Target: T1, Pho4 (S. cerevisiae) (UniProt P07270)
T1 sequence: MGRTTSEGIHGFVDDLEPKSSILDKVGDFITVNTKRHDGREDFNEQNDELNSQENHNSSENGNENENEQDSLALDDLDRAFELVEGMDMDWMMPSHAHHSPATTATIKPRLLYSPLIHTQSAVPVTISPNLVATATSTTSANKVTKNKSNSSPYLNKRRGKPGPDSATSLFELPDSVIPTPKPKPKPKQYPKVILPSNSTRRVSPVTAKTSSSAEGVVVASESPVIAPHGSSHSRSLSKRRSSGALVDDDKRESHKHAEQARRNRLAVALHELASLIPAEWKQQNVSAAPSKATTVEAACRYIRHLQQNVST
Experiment: relative binding free energy (BET-seq); higher = weaker binding
Conditions: reference: library average

Sequence | relative binding free energy
TGGGCCACGTGATAGG | 0.03 kcal/mol
GCTCTCACGTGGGGGG | 0.13 kcal/mol
GAGGTCACGTGGGCAA | 0.01 kcal/mol
TGGGCCACGTGTAGTT | -0.01 kcal/mol
AATCGCACGTGGTGTA | -0.18 kcal/mol
ATCAACACGTGTTGTT | -0.05 kcal/mol
TTTGACACGTGTGATA | 0.14 kcal/mol
CTTCTCACGTGTGGAG | 0.36 kcal/mol
TTGCTCACGTGGAGTT | 0.26 kcal/mol
GTTCTCACGTGTGTGT | 0.24 kcal/mol
TGAACCACGTGGTTTG | 0.02 kcal/mol
TTAGTCACGTGACGGC | 0.25 kcal/mol
ATAGGCACGTGGGACG | -0.2 kcal/mol
CTGTTCACGTGGGCCT | 0.2 kcal/mol
GGTGGCACGTGCAGTA | -0.19 kcal/mol
TCGTTCACGTGTGTTA | 0.2 kcal/mol
GGGGCCACGTGGGGCC | -0.17 kcal/mol
AGTGACACGTGGGTTA | -0.19 kcal/mol
ATTAACACGTGTTGGA | 0.09 kcal/mol
TGACACACGTGGTGGT | -0.23 kcal/mol
GTGCACACGTGGCTGG | 0 kcal/mol
TGGGACACGTGATATT | 0.16 kcal/mol
GGAATCACGTGGGGAT | 0.16 kcal/mol
GGCTTCACGTGTGGGG | 0.31 kcal/mol
GTTAGCACGTGAGACG | 0.29 kcal/mol

Sequence | relative binding free energy
AAAATCACGTGGTTGG | 0.04 kcal/mol
CTAGGCACGTGTAAGG | -0.03 kcal/mol
GGGTTCACGTGAGGCT | 0.59 kcal/mol
GAGGGCACGTGTGGCC | 0.04 kcal/mol
GTGAACACGTGGTTTT | 0.06 kcal/mol
CAGTGCACGTGGGTAT | -0.22 kcal/mol
GCTTGCACGTGCGAGG | 0.03 kcal/mol
ACTAACACGTGTGGGG | -0.03 kcal/mol
GTTTGCACGTGATCTG | 0.2 kcal/mol
GAATACACGTGGCGGT | 0.1 kcal/mol
TGTAGCACGTGCATTG | -0.12 kcal/mol
TTTTACACGTGTCCGT | 0.25 kcal/mol
AGTTACACGTGCTGTG | 0.07 kcal/mol
ATTGGCACGTGCATTG | -0.21 kcal/mol
TTTGTCACGTGATGGC | 0.28 kcal/mol
GTTTCCACGTGGTGAG | 0.13 kcal/mol
CGTTACACGTGAGGTT | 0.24 kcal/mol
TCATACACGTGGATTT | 0.19 kcal/mol
TTTCACACGTGGTATA | 0.05 kcal/mol
TGTCTCACGTGGTTAC | 0.24 kcal/mol
AATATCACGTGGAGTG | 0.02 kcal/mol
GAGTGCACGTGTAGAG | 0.07 kcal/mol
GTAGTCACGTGTTTTC | 0.19 kcal/mol
AGTGGCACGTGGCGCG | -0.09 kcal/mol
TGCGGCACGTGCGTGT | -0.05 kcal/mol

Sequence | relative binding free energy
TTAATCACGTGGATTT | 0.2 kcal/mol
AGTGGCACGTGGGGAG | -0.18 kcal/mol
TGGCACACGTGGGGTC | -0.22 kcal/mol
TGTTGCACGTGGATGA | 0.01 kcal/mol
TAGGGCACGTGGTTTA | -0.12 kcal/mol
GGCGGCACGTGGGTGT | -0.18 kcal/mol
TTGATCACGTGCAGGG | 0.11 kcal/mol
TGATTCACGTGGGTGC | 0.27 kcal/mol
GCAGCCACGTGGGGGG | -0.21 kcal/mol
TGTAGCACGTGAGGAA | 0.18 kcal/mol
TTCGACACGTGTGGTA | 0.13 kcal/mol
GGGTGCACGTGTGAAT | 0.13 kcal/mol
ATTTGCACGTGAGGAG | 0.2 kcal/mol
GGCCGCACGTGGTAGG | 0.09 kcal/mol
TGATTCACGTGGCAGA | 0.34 kcal/mol
AGGAGCACGTGAATGT | 0.38 kcal/mol
ATGGGCACGTGGGCCT | -0.25 kcal/mol
TTATGCACGTGGGAGT | -0.07 kcal/mol
TAACGCACGTGGGTAG | -0.2 kcal/mol
TCCTTCACGTGTTGTT | 0.22 kcal/mol
AAAGCCACGTGGTTTG | -0.11 kcal/mol
AAGTACACGTGTATGG | 0.1 kcal/mol
CATTGCACGTGGGGCG | -0.13 kcal/mol
